Test results reported in PubChem BioAssay AID485344 (National Center for Advancing Translational Sciences (NCATS), 2010).
The whole screen tested about 340,000 compounds, of which about 6,900 (2%) were called active. Rule as the data show it: active = inhibition above about 30%; inactive = below that, where a call was filed. This is a selection; strong and weak results do not stand in their true shares. The source gives no active or inactive call for entries shown without one.

Target: D(2) dopamine receptor (Homo sapiens) (UniProt P14416)
Experiment: HTS Assay for Allosteric Antagonists of the Human D2 Dopamine Receptor: Primary Screen for Antagonists; also: 0% is about no effect
Conditions: HEK293 TREx D2 cells, calcium flux, dopamine EC80; at 10 µM; stronger effect = higher value
How it was run: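 In this primary screen, negative modulation is detected by tracking calcium flux after an EC80 dopamine challenge in inducible HEK293 T-REx D2 cells preexposed to test compound for 180 s.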

Chain of UniProt P14416 (P14416 whole entry, looked up): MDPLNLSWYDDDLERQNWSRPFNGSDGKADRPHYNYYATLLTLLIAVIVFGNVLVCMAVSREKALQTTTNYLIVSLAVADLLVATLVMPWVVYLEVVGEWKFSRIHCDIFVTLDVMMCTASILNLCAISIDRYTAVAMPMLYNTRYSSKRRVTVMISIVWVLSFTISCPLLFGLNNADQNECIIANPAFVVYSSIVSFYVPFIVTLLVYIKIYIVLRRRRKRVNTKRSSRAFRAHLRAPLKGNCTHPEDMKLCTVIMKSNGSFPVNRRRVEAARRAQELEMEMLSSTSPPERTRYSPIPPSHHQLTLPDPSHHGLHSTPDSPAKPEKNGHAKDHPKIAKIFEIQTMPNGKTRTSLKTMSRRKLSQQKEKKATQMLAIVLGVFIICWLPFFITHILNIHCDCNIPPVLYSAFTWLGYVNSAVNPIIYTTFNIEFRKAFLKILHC

SMILES	inhibition
Cc1ccc2oc(C(=O)Nc3ccc(S(=O)(=O)Nc4onc(C)c4C)cc3)cc(=O)c2c1	-1.96%
CCOC(=O)c1c(C)[nH]c(C)c1S(=O)(=O)N1CCC(C(=O)N2CCN(c3cc(C)ccc3C)CC2)CC1	-12.7%
CC1CCN(S(=O)(=O)c2ccc3c(c2)N(CC(=O)NCCc2ccc(Cl)cc2)C(=O)CO3)CC1	-7.62%
Cc1ccc(NC(=O)CCCn2c3ccccc3c(=O)c3cc(C)ccc32)c(Br)c1	-6.49%
Cc1ccccc1NC(=O)CSc1cn(CC(=O)N(C(C)C)C(C)C)c2ccccc12	-4.01%
COCCNC(=O)C1CCN(c2nc3ccccc3nc2C(F)(F)F)CC1	1.77%
CC1CCN(CCCCOc2ccc(C(C)(C)C)cc2)CC1	active: 32.6%
COc1cc2c(cc1OC)n(Cc1ccc([N+](=O)[O-])cc1)c(=O)n1nc(-c3ccccc3)nc21	-8.56%
Cc1cccc(NC(=S)NC2CC3CCCC(C2)N3Cc2ccccc2)c1C (centres undefined)	active: 105%
COc1cc2c(cc1OC)C(COc1ccc3c(C)cc(=O)oc3c1)N(C(=O)c1ccccc1F)CC2 (centres undefined)	5.92%
CCOC(=O)/C(=C\C=C1/Sc2cc(OCC)c(OCC)cc2N1CC)C(C)=O	active: 65.5%
CC1CCN(c2nc3c(S(=O)(=O)c4ccc(Cl)cc4)nnn3c3ccsc23)CC1	-1.38%
COc1ccc(CCNc2nc3c(-c4cccc(F)c4)nnn3c3ccccc23)cc1OC	1.52%
Cc1cccc(NC(=O)CSc2nc(-c3ccccc3Cl)nc3c2Cc2c(CO)cnc(C)c2O3)c1C	0.291%
CC(OCCN1CCCC1)(c1ccc(F)cc1)c1ccc(F)cc1	active: 73.2%
CCOc1cccc(C2CC(=O)Nc3cc4c(cc32)OCCO4)c1 (centres undefined)	19.7%
COc1ccc(OCC(=O)NC2CC(=O)N(c3ccc4c(c3)OCCO4)C2)cc1 (centres undefined)	-2.5%
COc1ccc(-c2ccc(NS(=O)(=O)c3cccc(C)c3)cc2)nn1	-3.93%
COc1ccc(CCNC(=O)C2CCN(c3nc4ccccc4nc3C(F)(F)F)CC2)c(OC)c1	-8.77%
CCN(CC)c1ccc(/C=C2\C(=O)c3ccc(C(=O)O)cc3C2=O)cc1	active: 54.4%
Cc1ccc(C)c(CN2C(=O)C3(c4ccccc42)N(c2ccc(Cl)cc2)C(=O)CS3(=O)=O)c1 (centres undefined)	3.46%
COc1ccc(CNc2nc3ccccc3c3nc(-c4ccccc4)nn23)cc1	0.239%
COc1ccc(OC)c(N2CC(O)(c3cccs3)[N+]3=C2SCCC3)c1 (centres undefined)	active: 40%
Cc1ccc(OCC(=O)Nc2nc(-c3ccc(Br)cc3)ns2)cc1C	6.39%

SMILES	inhibition
Cc1ccccc1OCC(=O)Nc1ccc2nc(SCc3ccccc3)sc2c1	18%
CCn1c(C(=O)NCc2cc(Br)ccc2OC)cc2oc3ccccc3c21	7.67%
CCN(C(=O)Cn1cnc2onc(-c3ccc(F)cc3)c2c1=O)c1cc(C)ccc1C	16.4%
Cc1ccc(NC(=O)N2CCN(c3cc(-c4noc(C)n4)ccc3C)CC2)c(C)c1	-5.32%
Cc1cccc(CCNC(=O)CN(c2ccc(C(C)C)cc2)S(=O)(=O)c2c(C)nn(C)c2C)c1	-26.8%
CCOC(=O)c1sc2nc(CSc3ccccc3)nc(N3CCCN(C)CC3)c2c1C	active: 53.2%
Cc1ccccc1-c1nnc(SCC(=O)N(C)C2CCCCC2)o1	-2.82%
O=C(NCCN1CCN(c2ccccc2)CC1)Nc1cccc(Cl)c1	active: 72.5%
O=C(NCc1ccc(F)cc1)c1ccc2c(c1)nnn2C1CCCC1	13.3%
COc1ccc(N2C(=O)CS(=O)(=O)C23C(=O)N(Cc2ccc(C)cc2)c2ccccc23)cc1Cl (centres undefined)	0.636%
CCOc1ccc(NC(=O)N2CCN(Cc3cc(=O)n4nc(-c5ccc(OC)cc5)sc4n3)CC2)cc1	-7.45%
Cc1c(NC(=O)c2cc(-c3ccc(Cl)cc3)on2)c(=O)n(-c2ccccc2)n1C	-10.1%
CCOC(=O)c1[nH]c(C)c(CCC(=O)NCc2ccc(OC)cc2)c1C	1.51%
CC(=O)c1ccc(NC(=O)C2CCC(CNS(=O)(=O)c3cccs3)CC2)cc1 (centres undefined)	11.4%
Cc1cccc(NC(=O)Cn2c(=O)ccc3cc(S(=O)(=O)N4CCCC4)ccc32)c1C	12.5%
CCOC(=O)c1noc2nc(C)n(Cc3cccc(C#N)c3)c(=O)c12	-1.11%
COc1ccc(CCNC(=O)c2ccc3c(c2)nc2n3CCC(C)C2)cc1OC (centres undefined)	1.5%
C/C(=N\Nc1ccc(Cl)c(C(=O)O)c1)c1ccc(Br)s1	active: 47.1%
CC(=O)c1ccc(NS(=O)(=O)c2ccc(-c3cc(C)no3)s2)cc1	-8.13%
Cc1ccc(NC(=O)c2ccc(CN3C(=O)CCn4nc(C)cc43)cc2)c(Cl)c1	-5.59%
CCCn1c(=O)c2sccc2n2c(CCCC(=O)Nc3ccc(Oc4ccc(Cl)cc4)cc3)nnc12	9.98%
CCOc1ccc(CCNC(=O)C2CCN(C(=O)c3cc4sccc4n3CC)CC2)cc1OCC	-2.13%
O=C(NNc1nc2c(F)cc(F)cc2s1)C1=COCCO1	active: 39.2%
CCCCOc1ccc(S(=O)(=O)Nc2ccc(-c3ccc(N4CCC(C)CC4)nn3)cc2)cc1	6.33%

SMILES	inhibition
COc1cccc(-c2nnc(SCC(=O)NC3CCCCC3)o2)c1	-4.6%
COc1ccc(S(=O)(=O)Nc2ccc(-c3cn4ccsc4n3)cc2)cc1C	-15.7%
CCOC(=O)N1CCN(CCC(=O)Nc2ccccc2OC)CC1	active: 50%
COc1cccc(N2CCN(C(=O)c3cccn3-c3nnc(N4CCCC4)s3)CC2)c1	6.53%
COCCCNC(=O)c1ccc(-n2c(-c3ccccc3)cc3c2CCC(C)C3)cc1 (centres undefined)	-25%
Cc1c(NC(=O)c2cc(=O)c3ccccc3o2)c(=O)n(-c2ccccc2)n1C	11.7%
Cc1coc2c(C)c3oc(=O)c(CC(=O)NCCc4ccc(Cl)cc4)c(C)c3cc12	-14.4%
C=CCc1c(C)nc2nc(SCC(=O)Nc3ccc(C)c(C)c3)nn2c1C	23.2%
Cc1cccc(CSc2nc(-c3cccs3)ccc2C#N)c1	-11%
COc1ccc(NC(=O)C2CCCN(S(=O)(=O)c3ccc4c(c3)oc(=O)n4C)C2)c(OC)c1 (centres undefined)	-23.5%
CCOC(=O)N1CCc2c(sc3c2c(=O)n(Cc2ccccc2)c(=O)n3Cc2ccccc2Cl)C1	-13.7%
Cc1ccc2ncc(C(=O)N3CCN(c4ccccc4F)CC3)c(=O)n2c1	12.9%
CCCCNC(=O)c1cc2c(C)cc(C)cc2[nH]1	active: 34.1%
Cc1c(NC(=O)c2cc(-c3cccc(O)c3)on2)c(=O)n(-c2ccccc2)n1C	-24.5%
O=C(CN1CCN(c2ccc(F)cc2)CC1)N1N=CCC1c1ccccc1 (centres undefined)	active: 36.3%
COc1cccc(NC(=O)C2CCN(c3nnc(C)c4c(C)n(-c5ccccc5)nc34)CC2)c1	16.9%
CCc1ccc(OCC(=O)N(Cc2ccc(C)o2)C2CCS(=O)(=O)C2)cc1 (centres undefined)	2.89%
Cc1ccc(S(=O)(=O)N(CC(=O)NCCc2ccc(Cl)cc2)c2ccccc2C)cc1	-3.33%
COc1ccc(CCNC(=O)c2cnn(-c3ccc(F)cc3)c2C2CCN(C(=O)OC(C)(C)C)CC2)c(OC)c1	15.1%
CCc1ccccc1NC(=O)N1CCc2c([nH]c3ccccc23)C1c1ccc(C)cc1 (centres undefined)	5.5%
COc1ccccc1N1CCN(c2ncc3c(n2)CCN(Cc2ccccc2F)C3)CC1	14.4%
Cc1ccc(CSc2oc(-c3cccs3)nc2S(=O)(=O)c2ccccc2)cc1	2%
CC(=O)c1ccc(N2CCN(c3ncnc4c3nc3n4CCCC3)CC2)cc1	5.88%
COc1ccc(CCNC(=O)Cc2c(C)c3c(cc(C)c4c(C)c(C)oc43)oc2=O)cc1	11.7%

SMILES	inhibition
COCCCNC(=O)c1cn(CCOC)c(=O)c2c1c1ccccc1n2C	-1.69%
Cc1ccc(NC(=O)CSc2nnc3[nH]c(=O)cc(-c4ccccc4)n23)cc1Cl	1.6%
COc1ccc(-c2noc(CCC(=O)Nc3ccc(C(F)(F)F)cc3)n2)cc1	12.8%
Cc1ccccc1CNC(=O)CN1C(=O)CSc2ccc(S(=O)(=O)N(C)C)cc21	0.264%
CC1CCN(CCOCCSc2ccc(Cl)cc2)CC1	active: 44.9%
COc1ccc(NC(=O)c2c(NC(=O)COc3ccccc3)sc3c2CCC(C)C3)cc1 (centres undefined)	2.75%
CCCCOc1ccc(S(=O)(=O)NNC(=O)c2cc3ccccc3o2)cc1	active: 44.2%
O=C(Nc1ccccc1C(F)(F)F)c1ccc2oc(=O)c(S(=O)(=O)c3ccc(F)cc3)cc2c1	0.766%
Cc1ccccc1Cn1c2ccccc2c2cnn(CC(=O)NC3CCC(C)CC3)c(=O)c21 (centres undefined)	-4.11%
COc1cc2c(=O)n(CCC(=O)NCC3CCCO3)c(=O)n(CC(=O)Nc3ccc(C)cc3C)c2cc1OC (centres undefined)	0.281%
COc1cc(NC(=O)C(CC(C)C)NS(=O)(=O)c2ccc3c(c2)CCN3C(C)=O)cc(OC)c1 (centres undefined)	-1.16%
CCc1ccc(CNCc2c(C(=O)O)n(Cc3ccc(C)cc3)c3cc(C)ccc23)cc1	4.35%
Cc1ccc(NC(=O)CC(C)S(=O)(=O)c2ccc3c(c2)NC(=O)CO3)c(Cl)c1 (centres undefined)	15.5%
CC(C)c1ccc2oc(-c3ccc(NC(=O)c4cccc(Br)c4)cc3)nc2c1	-7.14%
Cc1ccc2nc(-c3ccc(NC(=O)c4ccc(S(C)(=O)=O)cc4)cc3)sc2c1	-5.06%
CCOC(=O)c1ccccc1NC(=O)COc1ccccc1-c1nnc(-c2ccccc2)o1	10.8%
COc1ccc(CNC(=O)c2ccc(NC(=O)N3CCSc4ccccc43)cc2)cc1	-2.92%
CSc1nn(Cc2cccc(C)c2)c(N)c1S(=O)(=O)c1ccccc1	-7.58%
COc1ccccc1/C=C1\SC(=S)N(CCC(=O)Nc2nnc(C)s2)C1=O	active: 30.8%
Cc1c(C(=O)Nc2cccc(-c3nc4ccccc4s3)c2)oc2ccccc12	-5.91%
CCOc1ccc2nc(N3CCCC(C(=O)Nc4cc(Cl)c(OC)cc4OC)C3)sc2c1 (centres undefined)	-7.41%
CCCCCCSc1nnc2c(n1)OC(C)Nc1ccc(Br)cc1-2 (centres undefined)	11.7%
